# Measured values taken from the antibiotic and cytotoxicity screens of Wong et al. (2023).
# This is one part of the list.
# Columns and labels:
# HSkMC = human skeletal muscle cells; assay: cytotoxicity call (relative viability < 0.9); details: 10 µM
# S. aureus RN4220 = assay: growth inhibition call (relative growth <= 0.2); details: 50 µM
SMILES,cytotoxicity call (HSkMC),growth inhibition call (S. aureus RN4220)
O=C(O)CN(CCN(CC(=O)O)CC(=O)O)CCN(CC(=O)O)CC(=O)O,inactive,inactive
C[C@H](CO)N1C[C@H](C)[C@H](CN(C)S(=O)(=O)c2ccc(F)cc2)Oc2c(NS(=O)(=O)c3ccccc3)cccc2C1=O,inactive,inactive
CNC[C@H]1Oc2ccc(NS(=O)(=O)c3cn(C)cn3)cc2CC(=O)N([C@@H](C)CO)C[C@H]1C,inactive,inactive
CC(CCC(=O)O)C1CCC2C3C(O)CC4CC(O)CCC4(C)C3CC(O)C12C (centres undefined),inactive,inactive
C[C@H](CO)N1C[C@H](C)[C@H](CN(C)Cc2cccc(O)c2)OCc2ccccc2-c2c(n(C)c3ccccc23)C1=O,inactive,inactive
CN(C)C(=O)c1ccc(-c2ccc3n(c2=O)C[C@H]2[C@H](CO)[C@@H](C(=O)NCCc4ccccc4)N[C@@H]32)cc1,inactive,inactive
NNC(=O)[C@@H](N)Cc1ccccc1,inactive,inactive
C[C@H]1CN([C@@H](C)CO)C(=O)c2cccc(NS(=O)(=O)c3ccc(F)cc3)c2O[C@@H]1CN(C)Cc1ccncc1,inactive,inactive
C[C@@H]1CN([C@H](C)CO)C(=O)c2cc(NC(=O)CCCCCC(=O)Nc3ccccc3N)ccc2O[C@@H]1CN(C)Cc1ccccc1,inactive,inactive
NS(=O)(=O)c1ccc(Cl)cc1[N+](=O)[O-],inactive,inactive
C[C@H](CO)N1C[C@H](C)[C@@H](CN(C)Cc2ccc(-c3ccccc3)cc2)Oc2ccc(NS(=O)(=O)c3cccs3)cc2C1=O,inactive,inactive
C[C@@H]1CN([C@@H](C)CO)C(=O)c2cc(NC(=O)Cc3ccccc3)ccc2O[C@@H]1CN(C)S(C)(=O)=O,inactive,inactive
